The list shows a part of the results.

In the test the test system is PfSIP2 AP2 domain 1 (GST-tagged). Kind of test: gcPBM binding intensity (ln(normalized median fluorescence intensity)); higher = stronger DNA binding. In outline:
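Binding intensity is defined as the maximum Masliner-normalised natural-log median intensity across replicate spots for either probe orientation. It was measured on an Agilent 4 × 180k array of primer-extended double-stranded 36-bp intergenic genomic probes and negative controls, to which GST-tagged P. falciparum DNA-binding domains made in E. coli were applied for 1 h in 1× PBS with 1% milk, 0.2 mg/ml BSA, 0.5% salmon testes DNA and 0.03% Triton X-100. Detection was by Alexa488 anti-GST antibody and scanning at 488 nm.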
Regarding “ACAAAACTGTCTTTCACACAGAAATAAAAAAAAAAA [CACACA_site5829]”, the “gcPBM binding intensity (ln)” value amounted to 6.95.
Consider “AAATTTCATGGGTATTGTACATAATTTTATTATATA [XGTACX_site4988]”, for which the “gcPBM binding intensity (ln)” value is 7.03.
In the case of “ACATAAGATGAAAAATGTACATTCAAAAAATGAAAT [XGTACX_site3227]”, the “gcPBM binding intensity (ln)” value was 6.91.
To “ATATACTTACATATTACACACAATATTTTTAAATGT [CACACA_site3627]” belongs 7.11; to “TTTTTTTTGGTTTTCATGCACACAATTTATAAATCT [CACACA_site3107]”, 8.33.
To “AAAGTAAAAAAAAAAACATGCACATATTTACTTTAT [TGCATGCA_site849]” belongs 7.2; to “AAGGGAATATACCTTACACACAAAAATGCAGATATA [CACACA_site1451]”, 6.78.
For “CTAATCAAAATAAATTAACACACAATTTTAATATTG [CACACA_site7887]”, the “gcPBM binding intensity (ln)” value came out at 6.58.
To “GTTAATATACTTAATACACACACGAATATATATAAA [CACACA_site1181]” belongs 7.04; to “ATTCTATACATATATATACACACGTAGTTTCTATTT [CACACA_site2223]”, 6.89; to “TGTAATCTGGAGAAAAGTACACAGTATCTGGTAGCT [XGTACX_site2039]”, 6.86.
To “ATTTAAATTATAAAATGTACATTTAACAAATTTTAT [XGTACX_site770]” belongs 6.93.
To “TAACATTATATATATTGTACATAGTAAATATTATAT [XGTACX_site5421]” belongs 6.9; to “CTTTTAATGGTGTAAAGTACTTTCTTAAGGTTCAAA [XGTACX_site8423]”, 7.1; to “TATACAACGTTAAGCACACACAAAAAAAATTTAATA [CACACA_site3086]”, 6.95.
Regarding “ATATATGGGGCGCAGGAAAAGAGTTTTGGAAATAAA [CACACA_negctrl_site1265]”, the “gcPBM binding intensity (ln)” value was determined as 7.31.
With “AAGTTATATAAAGGAACACACATTTGATTTTATTTT [CACACA_site6814]”, the “gcPBM binding intensity (ln)” value is 6.75.
To “ATAAAACATAAAAATCGTACAAAGGAGGATATAAGG [XGTACX_site420]” belongs 7.31.
Take “TGGAGGTCAGTTCACAGTACCCAGAAAACTCTACGA [XGTACX_site2561]”: the “gcPBM binding intensity (ln)” value is 6.58.
“AAAATGATGTTAATTACACACATCATCTCATAAACA [CACACA_site3017]”: the “gcPBM binding intensity (ln)” value is 6.9.
To “ATTATTTATTATTTCTGTACGTATAAAAATAACATT [XGTACX_site1671]” belongs 7.3.
To “AATTGAAAAATCAGCACACACACAAATACATACATA [CACACA_site3232]” belongs 7.09; to “TGGTAATACACATACACACACACATACACATATATA [CACACA_site7312]”, 7.32.
To “GCTATATATTACAATCGTACAATATATATATATATA [XGTACX_site6730]” belongs 9.
On to “ATATATATATATATTACACACATGTGCAATTAAAAT [CACACA_site1778]”, for which the “gcPBM binding intensity (ln)” value came out at 8.92.
With “AATATAAGAATATATACACACATAAATACATACATA [CACACA_site4128]”, the “gcPBM binding intensity (ln)” value was found to be 7.01.
To “TTTTTAAAACCTTACATACACACAAATATATATATA [CACACA_site678]” belongs 8.49; to “TGTTCCGAAGGTTGTACACACATAGAAATATACATA [CACACA_site3874]”, 7.04.
To “TGAATTCATAGCAGTTGTACATTGCATGAAGAAACG [XGTACX_site3312]” belongs 7.08.
To “TCTTGTATACGGCATGCATGTTAGCACATACGGACA [TGCATGCA_site146]” belongs 6.94.
Regarding “AATACTTTTTATTTAGTGCATAAGAAAATATAAATC [GTGCAC_site9875]”, the “gcPBM binding intensity (ln)” value came out at 9.2.
“TATAAAATATGTATGAGGAATAAAATTAAAAAAAAA [TGCATGCA_negctrl_site178]”: the “gcPBM binding intensity (ln)” value turned out to be 6.68.
To “AAACAAAAAAACTACAGTACTTTTTTCAATTCCCCT [XGTACX_site7541]” belongs 6.93; to “TATATGTTTACTTAATGTACTTACATTTTTATAACA [XGTACX_site1100]”, 6.91.
To “AAAATTAACCGTAACACACACACATATATATATATA [CACACA_site3964]” belongs 9.78; to “ACATAAATAATAAAAACACACATATGTACTTATATA [CACACA_site8581]”, 7.01.
Consider “TTATTAATTTTTATTTTTAAATCACAAAAGATATAA [CACACA_negctrl_site787]”, for which the “gcPBM binding intensity (ln)” value worked out at 6.83.
Regarding “CATATTTGTATATGCACACATAAATTTTTCCATTTC [CACACA_site3467]”, the “gcPBM binding intensity (ln)” value came out at 7.55.
To “AAATTTTTAAACAGCACACATAAATATAATATATAT [CACACA_site2208]” belongs 7.27.
To “GACATTAAAATGAAATATACATATATATGTATATAT [TGCATGCA_negctrl_site601]” belongs 7.24.
To “TTACATTTTTGAAATAGATACATACACGTGTATGTA [CACACA_negctrl_site1311]” belongs 7.03; to “AAATTATTTATATGTTGTACTTATCCATTTTTATAA [XGTACX_site7441]”, 7.26; to “TATATTTATAGACACACACACAAAAAAAAAAAAAAA [CACACA_site6818]”, 6.95.
Turning to “TAATTTTTTTTATTATGTACTTAATAAATGTTAATT [XGTACX_site365]”, the “gcPBM binding intensity (ln)” value was 7.19.
As for “AATAAACATATATGTACACACATATACATATATATA [CACACA_site2848]”, the “gcPBM binding intensity (ln)” value was determined as 7.35.
To “TTTTTTTTTAATTATGCATGTAAATTATATATTATA [TGCATGCA_site335]” belongs 7.03; to “TATTTATAATTAAATACACACATATATTATATATTT [CACACA_site616]”, 6.97; to “TTAGCTACACGCTAATGTACACAAATACAAAGAAAA [XGTACX_site3993]”, 6.94.
To “TATACGCATATATAAACACACAAAAAAAAAAAAAAA [CACACA_site2026]” belongs 6.99; to “TATATTAATTTATATCAACACACAAAATCAATATAC [CACACA_site8518]”, 7.17; to “AAGAATGTTATATTATGATGCTGTCTTTTTTTAAGA [CACACA_negctrl_site251]”, 6.82.
In the case of “ATAAAATATTATATATATATATATATATATATATAT [CACACA_negctrl_site215]”, the “gcPBM binding intensity (ln)” value came to 9.87.
To “TGTTAATTAAAACATCATTAATATTATTAAAAATAC [XGTACX_negctrl_site509]” belongs 7.03.
To “TCTTTTTTTACTTTCTTTTTTTTTTTTTTTTTTTTT [XGTACX_negctrl_site610]” belongs 8.27.
To “CCTTTATAAAAAAGTAGTACACAATGAATTTATAAT [XGTACX_site5523]” belongs 7.1.
Take “CAATACTAATTGTATACACACAAAAATATACCATAT [CACACA_site3326]”: the “gcPBM binding intensity (ln)” value is 6.99.
To “AATTGATACCTTACATGTACATAATATATATAAATA [XGTACX_site321]” belongs 7.16.
To “GAACCATTTTTTGGTATACACACGTAATTATATAAT [CACACA_site8552]” belongs 6.99.
To “TTTTTACATACAAATTAACACACATATAGAAAAGAG [CACACA_site8570]” belongs 8.01.
For the sequence “ATATAATATTTATATGTACACACCTTAATCCTTAAA [CACACA_site3555]”, the “gcPBM binding intensity (ln)” value worked out at 6.94.
For “ATAAACGTTTTTGAAAGTACATATCATTCATTTGAT [XGTACX_site200]”, the “gcPBM binding intensity (ln)” value is 6.94.
To “TTTTAACATATAAGTACACACATATAATCAATCATA [CACACA_site2325]” belongs 7.25; to “CCTTATAAATACTGCACACATAAAATATATATTATC [CACACA_site2806]”, 7.59; to “TTTTATCGTTTTTTTTTTTTTTTTTTTTTTTTTTTT [CACACA_negctrl_site1309]”, 8.92.
For “TTTGTTCATATGAAATGTACAAAAAAAAAAAAAAAA [XGTACX_site8849]”, the “gcPBM binding intensity (ln)” value worked out at 6.86.
To “ATGTAGAAGTAATGCACACATATGTATTTATATATA [CACACA_site5391]” belongs 7.26; to “AAAAAAATTAATATGTCAGCACATATATACATACAT [GTGCAC_negctrl_site110]”, 6.93.
As to “TATATATATAAAAAAGCACACATACATACATACATA [CACACA_site8196]”, the “gcPBM binding intensity (ln)” value amounted to 7.89.
With “GAGAAAAGGAAATAACGTACACATATGCATATCCAA [XGTACX_site5858]”, the “gcPBM binding intensity (ln)” value was found to be 7.49.
To “GTGTTCTTGTTATACACACACATATATATATATATA [CACACA_site1032]” belongs 9.41; to “TATTTATTGTGACACTTTTATTATTTTATGATAAAA [CACACA_negctrl_site37]”, 6.97.
To “TGAAAGAAGCATAAATGTACACACATATTTATATAT [XGTACX_site2645]” belongs 6.91; to “GAGAGGTCAGTTCACAGTACCCAGAAACTCTACGAG [XGTACX_site2559]”, 6.4.
To “GTAATATTTTATAGTAGTACATATTTTTATTATTTT [XGTACX_site3333]” belongs 6.87; to “AATATTTATTTAATTTCACACAGGTCTTTTTTTTTT [CACACA_site5188]”, 6.73.
Turning to “TTGTTCTTATTTCATTTTTATATGATATTTCATTAT [CACACA_negctrl_site1619]”, the “gcPBM binding intensity (ln)” value amounted to 7.17.
Regarding “TGAAGAATATTTTTCACACATATATATATATATATA [CACACA_site6080]”, the “gcPBM binding intensity (ln)” value amounted to 9.69.
Consider “GACAAACAATATGAATGTACATAAAAATATAACTAA [XGTACX_site1167]”, for which the “gcPBM binding intensity (ln)” value was 7.19.
As to “TGAATATATAAATATGCACACTTCTATTATAAATAA [CACACA_site5796]”, the “gcPBM binding intensity (ln)” value was determined as 8.37.
To “TAACATATAAGTGTGTGTACGTACTGCGTATAATAT [XGTACX_site8597]” belongs 7.33; to “ATATATATATATATATGTACATATTTTTGTTTGATG [XGTACX_site51]”, 9.34; to “CAGATATTCATATAAACACACATACAAATTATGTAT [CACACA_site4258]”, 6.95.
To “TATATATATAATTAAGCATGCTAGAAACCTTTGAAA [TGCATGCA_site489]” belongs 7.47; to “TACAATCTAAAATACACACGCACACCGAAAAAAAAA [CACACA_site3520]”, 7.22; to “ATATATATATATATTGCACACACAATTATTATTATT [CACACA_site8721]”, 9.3.
With “AAATTATTTCTTTGCGCATGTAGCTTTTATACTATT [TGCATGCA_site819]”, the “gcPBM binding intensity (ln)” value amounted to 6.86.
To “ACATAAATAATAAAAACACACATATGTACCTATATA [CACACA_site6982]” belongs 7.11; to “AATACATGCTAAAAACGTACACGTATAAAATTATAT [XGTACX_site3169]”, 7.22.
